# Results taken from the supplement of paper PMC7826260.
# The list shows a part of the results. Each Rep nickase domain was tested in vitro on the same pool of single strands at 3 µM enzyme and 37 °C for 1 h; the strands have 90 letters, of which the middle is given. Numbers give uncut DNA relative to the enzyme-free pool, as log2; more negative means more cut, near 0 not cut, and no call is made. Counts are relative to all reads, so uncut sequences can rise above 0 when many others are cut.
# Legend:
# Assay in all cases: uncleaved DNA left, log2 of reads against the no-enzyme library (log2 ratio); higher = less cleavage (more negative = more Rep cleavage of the k-mer); sequences stand for … in CTCGTCCG…ACCGGAGA
# [1] = test system: T1, Rep nickase domain of Muscovy duck circovirus
# T1 sequence (residues 1-111, tag not shown): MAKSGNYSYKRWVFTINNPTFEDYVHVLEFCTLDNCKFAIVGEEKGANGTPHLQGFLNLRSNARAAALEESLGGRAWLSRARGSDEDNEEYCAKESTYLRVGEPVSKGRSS
# Description: (§1)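 A pool of 90-nt single-stranded DNAs with seven random bases just before the constant AC of the nick site (name = the seven bases) was cut by 3 µM recombinant His6-SUMO-tagged Rep nickase domain (300 nM DNA, 50 mM HEPES pH 8.0, 50 mM NaCl, 1 mM MnCl2, 1 h, 37 °C, three replicates). Uncut DNA was amplified and sequenced.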
# [2] = test system: T2, Rep nickase domain of banana bunchy top virus
# T2 sequence (residues 1-94, tag not shown): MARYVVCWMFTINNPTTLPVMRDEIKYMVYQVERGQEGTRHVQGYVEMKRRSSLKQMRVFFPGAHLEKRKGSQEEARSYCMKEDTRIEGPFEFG
# Description: as §1
# [3] = test system: T3, Rep nickase domain of cabbage leaf curl virus
# T3 sequence (residues 1-116, tag not shown): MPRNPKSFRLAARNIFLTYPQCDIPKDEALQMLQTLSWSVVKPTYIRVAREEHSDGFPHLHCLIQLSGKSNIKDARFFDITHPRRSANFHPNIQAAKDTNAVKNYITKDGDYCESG
# Description: as §1
# [4] = test system: T4, Rep nickase domain of chickpea chlorotic dwarf virus
# T4 sequence (residues 1-124, tag not shown): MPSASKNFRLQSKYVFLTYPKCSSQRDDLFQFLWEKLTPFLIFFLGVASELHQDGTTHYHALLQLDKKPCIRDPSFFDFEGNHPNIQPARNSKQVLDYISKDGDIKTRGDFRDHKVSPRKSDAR
# Description: as §1
# [5] = test system: T5, Rep nickase domain of faba bean necrotic yellows virus
# T5 sequence (residues 1-98, tag not shown): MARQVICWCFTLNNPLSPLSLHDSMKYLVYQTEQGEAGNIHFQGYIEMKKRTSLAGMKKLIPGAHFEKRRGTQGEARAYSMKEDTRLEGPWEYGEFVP
# Description: as §1
# [6] = test system: T6, Rep nickase domain of maize striate mosaic virus
# T6 sequence (residues 1-117, tag not shown): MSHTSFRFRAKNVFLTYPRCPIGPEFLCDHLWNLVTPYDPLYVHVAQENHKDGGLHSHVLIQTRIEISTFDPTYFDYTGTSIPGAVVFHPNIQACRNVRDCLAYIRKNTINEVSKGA
# Description: as §1
# [7] = test system: T7, Rep nickase domain of porcine circovirus 2
# T7 sequence (residues 2-116, tag not shown): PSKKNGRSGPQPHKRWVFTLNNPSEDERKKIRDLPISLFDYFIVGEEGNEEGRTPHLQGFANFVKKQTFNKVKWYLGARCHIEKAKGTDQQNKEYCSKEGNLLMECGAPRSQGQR
# Description: as §1
# [8] = test system: T8, Rep nickase domain of tomato golden mosaic virus
# T8 sequence (residues 1-124, tag not shown): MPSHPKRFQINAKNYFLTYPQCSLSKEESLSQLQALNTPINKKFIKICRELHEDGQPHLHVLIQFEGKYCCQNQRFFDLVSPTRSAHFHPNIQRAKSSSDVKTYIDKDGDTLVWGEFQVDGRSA
# Description: as §1
# [9] = test system: T9, Rep nickase domain of tomato yellow leaf curl virus
# T9 sequence (residues 1-136, tag not shown): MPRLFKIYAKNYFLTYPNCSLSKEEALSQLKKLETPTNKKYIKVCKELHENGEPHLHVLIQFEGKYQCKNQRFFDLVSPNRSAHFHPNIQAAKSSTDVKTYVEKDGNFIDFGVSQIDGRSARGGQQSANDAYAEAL
# Description: as §1
# [10] = test system: T10, Rep nickase domain of wheat dwarf virus
# T10 sequence (residues 1-137, tag not shown): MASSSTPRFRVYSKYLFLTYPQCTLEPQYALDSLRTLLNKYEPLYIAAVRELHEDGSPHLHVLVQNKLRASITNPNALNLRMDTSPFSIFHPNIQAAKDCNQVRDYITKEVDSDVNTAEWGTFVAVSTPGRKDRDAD
# Description: as §1
Sequence,uncleaved DNA left (log2) [1],uncleaved DNA left (log2) [2],uncleaved DNA left (log2) [3],uncleaved DNA left (log2) [4],uncleaved DNA left (log2) [5],uncleaved DNA left (log2) [6],uncleaved DNA left (log2) [7],uncleaved DNA left (log2) [8],uncleaved DNA left (log2) [9],uncleaved DNA left (log2) [10]
CTTGTCC,0.00231,0.0187,0.0247,-0.735,0.0404,-0.565,-0.0276,-0.0666,0.0786,0.079
TGTTCCG,-0.032,-0.1,-0.97,-0.326,-0.0868,-1.17,0.022,-0.22,-0.0996,-0.152
TTTTCAA,0.0576,0.0966,0.267,0.459,-0.00115,0.679,-0.0408,-0.0168,0.0907,0.138
TAGACCT,0.0434,-0.368,-0.256,-1.09,-0.289,0.924,-3.43,-0.0332,0.109,0.0275
TGTATCC,0.0443,0.0376,0.249,0.521,-0.0474,0.852,0.00717,-0.0342,-0.0322,-0.0163
ATGCGAT,0.0107,-0.146,0.0558,0.839,-0.0244,0.734,0.207,-0.00639,-0.0487,-0.212
CTGATGT,0.044,-0.162,-0.0602,-0.459,0.047,-0.835,-0.0613,-0.156,-0.105,-0.0808
TGATGAA,0.0302,0.0635,0.234,-0.179,0.0528,-0.0358,-0.0928,0.114,0.0718,-0.00608
GTCGTCG,0.0797,0.0389,0.00421,0.119,-0.067,-0.121,0.0906,0.0378,0.0504,-0.0788
TCGCTGT,0.187,0.101,0.308,0.706,0.212,1.08,0.0814,0.181,0.0128,0.138
TGGCAAT,0.034,-0.00848,0.597,1.41,0.0133,1.68,0.156,-0.0624,-0.0273,0.188
GAGGGTG,0.109,-0.0891,-0.203,-0.0268,0.0233,0.102,0.165,0.128,0.0724,-0.0206
GGGCCGA,0.0563,0.25,0.851,1.92,0.1,2.21,0.299,0.188,0.0625,0.231
GGTTGGG,0.0697,-0.0653,-0.532,-0.301,0.0385,-0.327,0.135,-0.0545,0.135,-0.121
TAAAGCC,0.0502,-0.0154,-1.09,-2.66,0.0416,-1.16,0.125,-0.0369,-0.0572,-0.253
GGCCAAT,0.0699,0.178,0.745,1.8,0.0784,2.08,0.203,0.234,0.113,0.31

Sequence,uncleaved DNA left (log2) [1],uncleaved DNA left (log2) [2],uncleaved DNA left (log2) [3],uncleaved DNA left (log2) [4],uncleaved DNA left (log2) [5],uncleaved DNA left (log2) [6],uncleaved DNA left (log2) [7],uncleaved DNA left (log2) [8],uncleaved DNA left (log2) [9],uncleaved DNA left (log2) [10]
CATGTAT,0.00574,-0.185,-0.0727,-0.7,0.0232,-0.456,-0.185,-0.0358,-0.175,-0.00157
GTGGATC,0.122,0.129,0.569,1.28,0.101,2,0.169,0.0186,0.132,0.144
TCTGTAC,0.106,-0.113,-0.00223,-0.503,-0.0273,-0.346,0.0993,0.00586,-0.122,0.00104
TGCCGAC,-0.114,-0.185,-0.0875,0.0508,-0.166,-0.227,-0.00336,-0.0863,-0.124,-0.053
TCTTGAG,0.133,0.0356,-0.657,-0.276,0.0923,-1.14,0.195,-0.0352,0.0267,-0.0959
TCGGCAC,0.0314,0.127,0.0958,0.193,0.0138,-0.141,0.0458,0.0298,0.0444,-0.0125
GGATTCT,-0.406,0.019,0.411,0.878,0.0137,1.75,-0.625,-0.0227,0.0159,0.155
AAGTTTC,-0.23,-0.038,-0.122,-0.723,-0.22,-0.624,-3.18,-0.106,-0.084,-0.0995
GACGCCC,0.0512,0.0589,0.134,0.302,0.03,0.348,-0.0131,0.0351,0.0287,0.132
ATTATAT,-0.172,-0.00669,0.128,-0.836,0.0814,-0.465,-3.18,0.18,0.0608,0.113
CTAAAAG,0.00561,0.149,-0.678,-0.296,0.194,-1.07,0.248,-0.00602,0.111,0.107
TTAGGGC,0.244,0.111,0.518,0.697,0.139,0.635,0.0131,0.203,0.0683,0.176
ATAGGCA,0.0708,0.0546,0.0424,0.0395,0.131,-0.619,0.0671,0.104,0.0605,0.0406
CAGGAAT,-0.00447,0.185,0.308,1.6,-0.118,1.98,0.173,0.13,-0.0457,0.219
CCCTCTC,-0.0437,-0.0657,0.145,-0.197,-0.0969,-0.525,-0.138,-0.181,-0.0655,-0.0257
